Assay results as given in PubChem BioAssay AID1434 (Sanford-Burnham Center for Chemical Genomics, 2008).
The list shows a part of the results. Further columns of the screen follow, without active or inactive calls. The list favours compounds with an active or inconclusive main result.

biological target: Runt-related transcription factor 1 (Homo sapiens) + Core-binding factor subunit beta (Homo sapiens) (UniProt Q01196+Q13951); experiment: inhibitors of RUNX1 Runt–CBFb-SMMHC binding, primary screen, biochemical, FRET, Cerulean-Runt, Venus-CBFb-SMMHC, uHTS (AID 1434); conditions: Cerulean-Runt/Venus-CBFb-SMMHC FRET ratio 530/480, 1 h; retest duplicate average; at 20 µM; stronger effect = higher value;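 further: 0% = DMSO wells and 100% = wells with excess untagged CBFb-SMMHC; inhibitors lower the FRET ratio by blocking Runt binding to CBFb-SMMHC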
Chain of UniProt Q01196 (Q01196 whole entry, looked up): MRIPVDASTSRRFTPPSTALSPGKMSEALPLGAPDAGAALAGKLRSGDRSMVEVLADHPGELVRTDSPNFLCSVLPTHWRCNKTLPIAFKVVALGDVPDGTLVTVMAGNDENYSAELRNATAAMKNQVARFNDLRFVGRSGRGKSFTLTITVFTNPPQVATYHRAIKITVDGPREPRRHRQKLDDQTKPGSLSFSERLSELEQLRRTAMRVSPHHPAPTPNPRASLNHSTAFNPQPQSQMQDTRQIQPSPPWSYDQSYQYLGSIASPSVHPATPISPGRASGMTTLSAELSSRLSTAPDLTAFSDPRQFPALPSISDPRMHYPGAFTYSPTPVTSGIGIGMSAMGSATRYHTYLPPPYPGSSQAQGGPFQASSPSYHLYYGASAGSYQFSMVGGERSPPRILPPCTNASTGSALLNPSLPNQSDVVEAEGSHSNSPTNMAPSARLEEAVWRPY
Chain of UniProt Q01196 (Q13951 whole entry, looked up): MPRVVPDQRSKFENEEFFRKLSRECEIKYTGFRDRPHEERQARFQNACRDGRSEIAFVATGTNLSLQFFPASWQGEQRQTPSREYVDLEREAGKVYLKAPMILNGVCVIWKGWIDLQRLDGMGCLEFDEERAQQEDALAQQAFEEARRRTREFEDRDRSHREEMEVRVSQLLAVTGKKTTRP

Row | SMILES | inhibition [%]
1 | COc1ccc(/C=C2\CCCc3c2nc2ccccc2c3C(=O)O)cc1OC | 70.6
2 | CCn1cc(C2C(C(=O)Nc3ccc(Br)cn3)=C(C)NC3=C2C(=O)CCC3)c(C)n1 (stereo unspecified) | 68
3 | CCCCc1cc(=O)oc2c(CN(CC)CC)c(O)c(Cl)cc12 | 160
4 | CC(C)CCN(CCC(C)C)CC(O)Cn1c2ccccc2c(=O)c2ccccc21 (stereo unspecified) | 165
5 | CCCCCCc1cc2cc(C(N)=O)c(=N)oc2cc1O | 72.9
6 | CCCn1nc(NC(=O)c2cccs2)c2cc3cc(OC)ccc3nc21 | 104
7 | CN1CCc2c(sc3ncn4nc(-c5ccccc5O)nc4c23)C1 | 142
8 | O=C(COc1ccccc1)NNc1c2ccccc2nc2ccccc12 | 92.4
9 | CCNc1sc(C(=O)c2cccs2)c(N)c1-c1nc2ccccc2s1 | 101
10 | Cc1ccc2cc(C#N)c(NCCNC(=O)C3CC3)nc2c1C | 110
11 | O=S(=O)(Nc1ccc(-c2nc3cccnc3s2)cc1)c1cccs1 | 170
12 | COCCn1c(C)cc2c(c1=O)C(c1ccco1)C(C#N)=C(N)O2 (stereo unspecified) | 173
13 | Cc1ccc(S(=O)(=O)NNc2ccccc2)cc1 | 54.8
14 | COCCCNC(=O)c1c(N)n(-c2ccc(S(N)(=O)=O)cc2)c2nc3ccccc3nc12 | 90.2
15 | CC(C)N1CC=C2C(C#N)=C(N)C(C#N)(C#N)C(c3ccccc3)C2C1 (stereo unspecified) | 148
16 | COC(=O)C1=C(C)NC2=C(C(=O)CC(C)(C)C2)C1c1ccccn1 (stereo unspecified) | 103

Row | SMILES | inhibition [%]
17 | Cc1cccc(N=c2oc3cc(O)ccc3cc2C(N)=O)c1 | 72.9
18 | N#Cc1c2c(c(NCc3ccco3)n3c1nc1ccccc13)CCC2 | 74.9
19 | CN1CCc2c(sc(N)c2C(N)=O)C1 | 160
20 | CC(=O)Nc1ccc2cc3ccc(NC(C)=O)cc3nc2c1 | 3.2
21 | CCCCn1c(-c2cccs2)nc2nc3ccccc3nc21 | 109
22 | COc1cc(OC)c(OC)cc1/C=N/Nc1ncnc2c1[nH]c1ccccc12 | 54.8
23 | COc1cccc(-n2c(SCc3cc(=O)oc4cc(O)c(O)cc34)nc3ccccc3c2=O)c1 | 91.2
24 | CCOC(=O)c1c(N)n(CC(C)NC(=O)C2CC2)c2nc3ccccc3nc12 (stereo unspecified) | 143
25 | O=C1C=CC(=O)N1c1cccc(-c2ccccc2)c1 | 60.2
26 | C=CCN1C(=O)/C(=C2/Sc3ccccc3N2CCCS(=O)(=O)O)SC1=S | 115
27 | COCCn1c(N)c(C(=O)NCc2cccs2)c2nc3ccccc3nc21 | 103
28 | Cc1cccc2cc(C#N)c(N3CCC(O)CC3)nc12 | 83.6
29 | c1ccc(C2CC(c3cccs3)=NN2c2ccccc2)cc1 (stereo unspecified) | 80.6
30 | COC(=O)C1=C(C)NC2=C(C(=O)C(C(=O)OC)C(c3ccc(OC)cc3)C2)C1c1ccccn1 (stereo unspecified) | 82
31 | CCOC(=O)Cc1csc(/N=C/c2c(O)n(-c3ccc(C)c(C)c3)c(=O)c3ccccc23)n1 | 72.4
